Results published in patent publication US20170354148A1, “SAFENED HERBICIDAL COMPOSITIONS CONTAINING HALAUXIFEN AND METHODS OF USE THEREOF IN BRASSICA SPECIES” (Dow AgroSciences LLC, priority 2016, published 2017).
Values joined by “and” are separate entries in the source; they are usually repeats but may differ in a detail not shown here. Identical values can stand only once.

How the values were obtained:
[1] = tested on: all varieties of canola and oil seed rape (Brassica napus, BRSNN); assay: Example 5 greenhouse trials, postemergence visual injury; conditions: for % Visual Injury Obs / Visual Injury Obs: BRSNN
[2] = tested on: Juncea canola or brown mustard (Brassica juncea, BRSJU); assay: as above; conditions: for % Visual Injury Obs / Visual Injury Obs: BRSJU
[3] = tested on: BRSOM=Brassica oleracea var. acephala subvar. Medullosa (stem kale); assay: Example 2 trials (Table 6), postemergence crop safety, visual leafroll
[4] = tested on: stem kale (Brassica oleracea var. acephala subvar. medullosa, BRSOM); assay: Example 1 pot trials, postemergence crop safety, visual phytotoxicity
[5] = halauxifen-methyl alone 2.5 g ai/ha
[6] = halauxifen-methyl alone 5 g ai/ha
[7] = halauxifen-methyl alone 10 g ai/ha

CCOC(=O)C1=NN(c2ccc(Cl)cc2Cl)C(C)(C(=O)OCC)C1 (racemic) [Mefenpyr-diethyl, diethyl (RS)-1-(2,4-dichlorophenyl)-5-methyl-2-pyrazoline-3,5-dicarboxylate]
0%: Percent (%) Visual Injury BRSNN Obs ([1]; safener alone 5 g ai/ha) | Percent (%) Visual Injury BRSNN Obs ([1]; safener alone 10 g ai/ha) | Percent (%) Visual Injury BRSNN Obs ([1]; safener alone 20 g ai/ha) | Percent (%) Visual Injury BRSNN Obs ([1]; safener alone 40 g ai/ha) | Percent (%) Visual Injury BRSJU Obs ([2]; safener alone 5 g ai/ha) | Percent (%) Visual Injury BRSJU Obs ([2]; safener alone 10 g ai/ha) | Percent (%) Visual Injury BRSJU Obs ([2]; safener alone 20 g ai/ha) | Percent (%) Visual Injury BRSJU Obs ([2]; safener alone 40 g ai/ha)

O=C(O)c1nc(Cl)ccc1Cl [Clopyralid-TIPA, (2RS,2′RS,2″RS)-tris(2-hydroxypropyl)ammonium 3,6-dichloropyridine-2-carboxylate]
0%: Mean % Visual Leafroll ([3]; 1DAA1, 22.5 g ae/ha) | Mean % Visual Leafroll ([3]; 1DAA1, 45 g ae/ha) | Mean % Visual Leafroll ([3]; 1DAA1, 90 g ae/ha) | Mean % Visual Leafroll ([3]; 1DAA1, 180 g ae/ha) | Mean % Visual Leafroll ([3]; 1DAA1, 360 g ae/ha) | Mean % Visual Leafroll ([3]; 4DAA1, 22.5 g ae/ha) | Mean % Visual Leafroll ([3]; 4DAA1, 45 g ae/ha) | Mean % Visual Leafroll ([3]; 4DAA1, 90 g ae/ha) | Mean % Visual Leafroll ([3]; 4DAA1, 180 g ae/ha) | Mean % Visual Leafroll ([3]; 4DAA1, 360 g ae/ha) | Mean % Visual Leafroll ([3]; 7DAA1, 45 g ae/ha) | Mean % Visual Leafroll ([3]; 7DAA1, 90 g ae/ha) | Mean % Visual Leafroll ([3]; 7DAA1, 180 g ae/ha) | Mean % Visual Leafroll ([3]; 7DAA1, 360 g ae/ha) | Mean % Visual Leafroll ([3]; 15DAA1, 90 g ae/ha) | Mean % Visual Leafroll ([3]; 15DAA1, 180 g ae/ha) | Mean % Visual Leafroll ([3]; 28DAA1, 90 g ae/ha) | Mean % Visual Leafroll ([3]; 28DAA1, 360 g ae/ha) | Mean % Visual Injury ([4]; trial 2, 15DAA1, 45 g ae/ha) | Mean % Visual Injury ([4]; trial 2, 15DAA1, 90 g ae/ha) | Mean % Visual Injury ([4]; trial 2, 15DAA1, 360 g ae/ha) | Mean % Visual Injury ([4]; trial 2, 28DAA1, 180 g ae/ha) | Mean % Visual Injury ([4]; trial 2, 28DAA1, 360 g ae/ha)
0.0% and 0.7%: Mean % Visual Deformation ([4]; 7DAA1, 22.5 g ae/ha) | Mean % Visual Deformation ([4]; 7DAA1, 45 g ae/ha) | Mean % Visual Deformation ([4]; 7DAA1, 90 g ae/ha) | Mean % Visual Deformation ([4]; 7DAA1, 180 g ae/ha) | Mean % Visual Deformation ([4]; 7DAA1, 360 g ae/ha) | Mean % Visual Injury ([4]; trial 2, 7DAA1, 90 g ae/ha) | Mean % Visual Injury ([4]; trial 2, 7DAA1, 180 g ae/ha) | Mean % Visual Injury ([4]; trial 2, 7DAA1, 360 g ae/ha)
0.0%: Mean % Visual Deformation ([4]; 15DAA1, 22.5 g ae/ha) | Mean % Visual Deformation ([4]; 15DAA1, 45 g ae/ha) | Mean % Visual Deformation ([4]; 15DAA1, 90 g ae/ha) | Mean % Visual Deformation ([4]; 15DAA1, 180 g ae/ha) | Mean % Visual Deformation ([4]; 15DAA1, 360 g ae/ha) | Mean % Visual Deformation ([4]; 28DAA1, 90 g ae/ha) | Mean % Visual Deformation ([4]; 28DAA1, 180 g ae/ha) | Mean % Visual Deformation ([4]; 28DAA1, 360 g ae/ha) | Mean % Visual Injury ([4]; trial 1, 15DAA1, 90 g ae/ha) | Mean % Visual Injury ([4]; trial 1, 28DAA1, 90 g ae/ha) | Mean % Visual Injury ([4]; trial 2, 15DAA1, 22.5 g ae/ha) | Mean % Visual Injury ([4]; trial 2, 15DAA1, 180 g ae/ha)
0.7%: Mean % Visual Injury ([4]; trial 2, 7DAA1, 22.5 g ae/ha) | Mean % Visual Injury ([4]; trial 2, 7DAA1, 45 g ae/ha)

O=C(O)c1nc(Cl)ccc1Cl [Clopyralid-olamine, 2-hydroxyethanaminium 3,6-dichloro-2-pyridinecarboxylate]
2%: % Visual Injury Obs ([1]; 50 g ai/ha alone, 20-22 d)
0%: % Visual Injury Obs ([1]; 100 g ai/ha alone, 20-22 d) | % Visual Injury Obs ([1]; 200 g ai/ha alone, 20-22 d) | % Visual Injury Obs ([2]; 50 g ai/ha alone, 20-22 d) | % Visual Injury Obs ([2]; 100 g ai/ha alone, 20-22 d) | % Visual Injury Obs ([2]; 200 g ai/ha alone, 20-22 d)

COC(=O)c1nc(-c2ccc(Cl)c(OC)c2F)cc(N)c1Cl [Halauxifen-methyl, methyl 4-amino-3-chloro-6-(4-chloro-2-fluoro-3-methoxyphenyl)-2-pyridineccarboxylate]
42.5% and 40.0%: Mean % Visual Deformation ([4]; 15DAA1, 15 g ae/ha)
52.5% and 46.4%: Mean % Visual Injury ([4]; trial 2, 15DAA1, 15 g ae/ha)
21%: % Visual Injury Obs ([1]; 10 g ai/ha alone, 20-22 d) | % Visual Injury Obs ([1]; halauxifen-methyl 10 g ai/ha) | Visual Injury Obs ([1]; halauxifen-methyl 10 g ai/ha) | Percent (%) Visual Injury BRSNN Obs [1, 7]
18.0%: Mean % Visual Injury ([4]; trial 1, 15DAA1, 15 g ae/ha)
26.0%: Mean % Visual Injury ([4]; trial 1, 28DAA1, 15 g ae/ha)
19%: % Visual Injury Obs ([1]; 5 g ai/ha alone, 20-22 d) | % Visual Injury Obs ([1]; halauxifen-methyl 5 g ai/ha) | Visual Injury Obs ([1]; halauxifen-methyl 5 g ai/ha) | Percent (%) Visual Injury BRSNN Obs [1, 6]
8%: % Visual Injury Obs ([2]; 5 g ai/ha alone, 20-22 d) | % Visual Injury Obs ([2]; halauxifen-methyl 5 g ai/ha) | Visual Injury Obs ([2]; halauxifen-methyl 5 g ai/ha) | Percent (%) Visual Injury BRSJU Obs [2, 6]
70.8%: Mean % Visual Injury ([4]; trial 2, 28DAA1, 15 g ae/ha)
4%: % Visual Injury Obs ([2]; 2.5 g ai/ha alone, 20-22 d) | % Visual Injury Obs ([2]; halauxifen-methyl 2.5 g ai/ha) | Visual Injury Obs ([2]; halauxifen-methyl 2.5 g ai/ha) | Percent (%) Visual Injury BRSJU Obs [2, 5]
5%: % Visual Injury Obs ([2]; 10 g ai/ha alone, 20-22 d) | % Visual Injury Obs ([2]; halauxifen-methyl 10 g ai/ha) | Visual Injury Obs ([2]; halauxifen-methyl 10 g ai/ha) | Percent (%) Visual Injury BRSJU Obs [2, 7]
12%: % Visual Injury Obs ([1]; 2.5 g ai/ha alone, 20-22 d) | % Visual Injury Obs ([1]; halauxifen-methyl 2.5 g ai/ha) | Visual Injury Obs ([1]; halauxifen-methyl 2.5 g ai/ha) | Percent (%) Visual Injury BRSNN Obs [1, 5]
70.0%: Mean % Visual Deformation ([4]; 28DAA1, 15 g ae/ha)

O=C(O)c1c(Cl)ccc2cc(Cl)cnc12 [Quinclorac, 3,7-dichloro-8-quinolinecarboxylic acid]
0%: % Visual Injury Obs ([1]; 50 g ai/ha alone, 20-22 d) | % Visual Injury Obs ([1]; 100 g ai/ha alone, 20-22 d) | % Visual Injury Obs ([1]; 200 g ai/ha alone, 20-22 d) | % Visual Injury Obs ([1]; quinclorac 50 g ai/ha) | Visual Injury Obs ([1]; quinclorac 50 g ai/ha) | % Visual Injury Obs ([1]; quinclorac 100 g ai/ha) | Visual Injury Obs ([1]; quinclorac 100 g ai/ha) | % Visual Injury Obs ([1]; quinclorac 200 g ai/ha) | Visual Injury Obs ([1]; quinclorac 200 g ai/ha) | % Visual Injury Obs ([2]; 50 g ai/ha alone, 20-22 d) | % Visual Injury Obs ([2]; 100 g ai/ha alone, 20-22 d) | % Visual Injury Obs ([2]; 200 g ai/ha alone, 20-22 d) | % Visual Injury Obs ([2]; quinclorac 50 g ai/ha) | Visual Injury Obs ([2]; quinclorac 50 g ai/ha) | % Visual Injury Obs ([2]; quinclorac 100 g ai/ha) | Visual Injury Obs ([2]; quinclorac 100 g ai/ha) | % Visual Injury Obs ([2]; quinclorac 200 g ai/ha) | Visual Injury Obs ([2]; quinclorac 200 g ai/ha)
